Drawing on PMC9217984, this text covers binding for 1 substance.

Amino acid sequences for entries named in this document (tags omitted). A change or cut given only in a name is not applied to a line headed by its entry. Residues count along the entry.
UniProt Q96FW1: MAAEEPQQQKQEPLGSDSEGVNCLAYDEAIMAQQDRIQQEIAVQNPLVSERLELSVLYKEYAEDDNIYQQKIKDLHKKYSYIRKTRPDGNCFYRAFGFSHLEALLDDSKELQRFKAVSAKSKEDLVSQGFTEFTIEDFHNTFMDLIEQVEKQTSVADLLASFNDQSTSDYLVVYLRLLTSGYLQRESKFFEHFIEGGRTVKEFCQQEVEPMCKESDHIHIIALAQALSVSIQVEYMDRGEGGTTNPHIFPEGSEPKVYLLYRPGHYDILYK
Flag-OTUB1-N (1–80 aa): residues 1-80 of Q96FW1
Flag-OTUB1-C (81–271 aa): residues 81-271 of Q96FW1
UniProt Q16665: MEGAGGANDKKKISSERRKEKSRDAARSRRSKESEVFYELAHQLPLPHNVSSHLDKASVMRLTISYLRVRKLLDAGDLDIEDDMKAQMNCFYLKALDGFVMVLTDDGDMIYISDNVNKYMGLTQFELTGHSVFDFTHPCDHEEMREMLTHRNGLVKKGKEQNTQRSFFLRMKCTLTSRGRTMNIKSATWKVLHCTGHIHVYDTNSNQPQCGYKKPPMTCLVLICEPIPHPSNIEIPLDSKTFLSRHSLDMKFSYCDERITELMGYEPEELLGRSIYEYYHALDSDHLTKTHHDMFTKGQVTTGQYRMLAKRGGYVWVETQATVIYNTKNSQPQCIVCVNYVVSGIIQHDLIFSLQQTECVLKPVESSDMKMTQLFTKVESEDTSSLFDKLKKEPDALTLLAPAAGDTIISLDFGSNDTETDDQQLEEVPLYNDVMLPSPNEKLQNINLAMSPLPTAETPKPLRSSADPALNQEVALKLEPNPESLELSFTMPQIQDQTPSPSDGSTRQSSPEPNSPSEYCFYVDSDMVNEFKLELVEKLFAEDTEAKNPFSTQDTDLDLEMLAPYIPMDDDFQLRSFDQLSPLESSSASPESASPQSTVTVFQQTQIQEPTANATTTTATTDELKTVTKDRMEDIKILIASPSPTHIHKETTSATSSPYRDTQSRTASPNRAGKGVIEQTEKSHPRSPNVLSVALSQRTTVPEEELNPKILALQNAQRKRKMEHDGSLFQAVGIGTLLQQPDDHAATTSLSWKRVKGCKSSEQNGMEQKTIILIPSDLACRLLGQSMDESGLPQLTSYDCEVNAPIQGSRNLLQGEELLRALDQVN

These are yes or no findings as the source states them, for the method shown. Binding seen in cells or lysates may run through a third protein. Some entries that bind do so weakly or less than the wild type.

Targets include Flag-OTUB1-D88A (UniProt Q96FW1); Flag-OTUB1 (UniProt Q96FW1); Flag-OTUB1-N (1–80 aa) (UniProt Q96FW1); Flag-OTUB1-C (81–271 aa) (UniProt Q96FW1); Flag-OTUB1-C91A (UniProt Q96FW1).
Holding throughout (assay): co-IP; HEK293T cells co-transfected, 24 h (normoxia, 21% O2); anti-Flag antibody-conjugated agarose beads for immunoprecipitation, immunoblotting
On the technique in general: Immunoblotting shows a protein as a band on a membrane.

For the substance Myc-HIF-1α (from UniProt Q16665 1-826), the binding result in the assay with Flag-OTUB1-D88A was “binds”; in the assay with Flag-OTUB1 it was “binds”; with Flag-OTUB1-N (1–80 aa), “no binding”; with Flag-OTUB1-C (81–271 aa), “binds”; in the assay with Flag-OTUB1-C91A, “binds”.
